# The other results are listed elsewhere or left out. Values were computed here from the reads of four pooled replicates and scatter widely.
# Molecular target: T1, Pho4 (S. cerevisiae) (UniProt P07270)
# T1 sequence: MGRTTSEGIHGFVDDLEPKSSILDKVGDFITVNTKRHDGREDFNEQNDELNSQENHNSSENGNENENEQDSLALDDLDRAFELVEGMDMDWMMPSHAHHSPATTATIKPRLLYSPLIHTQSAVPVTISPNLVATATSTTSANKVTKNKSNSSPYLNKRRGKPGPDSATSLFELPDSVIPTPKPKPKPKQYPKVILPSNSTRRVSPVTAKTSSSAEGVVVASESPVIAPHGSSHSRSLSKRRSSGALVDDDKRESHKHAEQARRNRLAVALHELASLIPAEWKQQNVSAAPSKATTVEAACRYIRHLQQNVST
# Test: relative binding free energy (BET-seq); higher = weaker binding
# Settings: reference: library average
row,Sequence,relative binding free energy
1,TGAGGCACGTGAGTCG,0.18 kcal/mol
2,TTCAGCACGTGTGTGG,-0.06 kcal/mol
3,GGGGGCACGTGACCGG,-0.06 kcal/mol
4,TTGGGCACGTGAATAA,0.18 kcal/mol
5,AGCTTCACGTGTTCGT,0.33 kcal/mol
6,GTAGTCACGTGTATGT,0.1 kcal/mol
7,GGGGGCACGTGGGCCG,-0.13 kcal/mol
8,AAAGTCACGTGGTGAA,0.06 kcal/mol
9,ATTTACACGTGTCGTG,-0.01 kcal/mol
10,CGAATCACGTGGGGGA,-0.07 kcal/mol
11,TCGAGCACGTGGGGCT,-0.32 kcal/mol
12,AACTGCACGTGTGGTG,0.05 kcal/mol
13,CGGTACACGTGTGTAA,0.19 kcal/mol
14,TAGTACACGTGAGAGT,0.22 kcal/mol
15,TATAACACGTGTATTG,-0.01 kcal/mol
16,GGTCGCACGTGGTTCG,-0.02 kcal/mol
17,AAAAGCACGTGATGGG,0.15 kcal/mol
18,CTGGTCACGTGTGTGC,0.17 kcal/mol
19,AAGCGCACGTGGGGCC,0.1 kcal/mol
20,TTTGACACGTGTCGGG,0.1 kcal/mol
21,GTGATCACGTGCGGGG,0.13 kcal/mol
22,GGTGGCACGTGGTTAC,-0.16 kcal/mol
23,CGTGTCACGTGGGTTA,-0.05 kcal/mol

row,Sequence,relative binding free energy
1,TGTGTCACGTGATTAT,0.22 kcal/mol
2,CAAGGCACGTGGTAGT,-0.23 kcal/mol
3,GGAATCACGTGGGAGC,0.14 kcal/mol
4,GGGCTCACGTGCGGTA,0.1 kcal/mol
5,TTTTTCACGTGTGCTT,0.28 kcal/mol
6,TGATGCACGTGGTAGT,-0.05 kcal/mol
7,GAGGACACGTGTGGTG,0.13 kcal/mol
8,GTGGGCACGTGGCCGG,-0.21 kcal/mol
9,GCTGCCACGTGGGGCG,-0.11 kcal/mol
10,TTGTCCACGTGGAGGT,0.01 kcal/mol
11,ATGGCCACGTGGTGAG,-0.13 kcal/mol
12,CTGGACACGTGGTAGT,-0.1 kcal/mol
13,GGCTGCACGTGGGTAG,-0.09 kcal/mol
14,GTGAGCACGTGTTAAT,-0.06 kcal/mol
15,CTTTACACGTGTTTGG,0.05 kcal/mol
16,TCCGGCACGTGTTGGT,0.01 kcal/mol
17,AGGCGCACGTGATAGG,-0.03 kcal/mol
18,TGGTTCACGTGACCTT,0.49 kcal/mol
19,AAATTCACGTGAGGGC,0.38 kcal/mol
20,CAGAGCACGTGGTTTG,-0.08 kcal/mol
21,ATCGTCACGTGTGTGG,0.19 kcal/mol
22,AGCTTCACGTGGGGGG,0.11 kcal/mol
23,ATTGGCACGTGAGTAG,0.21 kcal/mol

row,Sequence,relative binding free energy
1,CTAGTCACGTGTAATG,0.15 kcal/mol
2,ATTAGCACGTGCTGGA,-0.15 kcal/mol
3,GTCTTCACGTGTAGTG,0.16 kcal/mol
4,CGGTTCACGTGGTGGA,0.23 kcal/mol
5,ATTGACACGTGGGTGG,-0.15 kcal/mol
6,TATGTCACGTGGGACA,-0.08 kcal/mol
7,TATGGCACGTGATTAA,-0.02 kcal/mol
8,GGTGCCACGTGGAGCT,-0.13 kcal/mol
9,TATGCCACGTGGGTAT,-0.2 kcal/mol
10,GGGTGCACGTGATACG,-0.03 kcal/mol
11,TAGAACACGTGGATGG,0.02 kcal/mol
12,ACGGTCACGTGGGCGG,-0.23 kcal/mol
13,TATATCACGTGAGTTA,0.2 kcal/mol
14,GTGTTCACGTGAGTGG,0.52 kcal/mol
15,CTGCGCACGTGGTGTG,-0.23 kcal/mol
16,GGGCGCACGTGCGGGC,-0.21 kcal/mol
17,GGAAGCACGTGGAAGT,0.05 kcal/mol
18,CAAGACACGTGTGGTT,0.18 kcal/mol
19,TGGGTCACGTGTAGTC,0.17 kcal/mol
20,GGTTGCACGTGAATGA,0.29 kcal/mol
21,GGAAACACGTGTTATT,0.04 kcal/mol
22,CATGTCACGTGGGTGA,-0.02 kcal/mol
23,GCTTGCACGTGATCGT,0.27 kcal/mol

row,Sequence,relative binding free energy
1,GGGACCACGTGTTTAT,0.11 kcal/mol
2,GGGGACACGTGGTTCG,-0.12 kcal/mol
3,GTTTTCACGTGGAATT,0.4 kcal/mol
4,GTCTGCACGTGGCTGA,0.05 kcal/mol
5,TGGGACACGTGCACGG,-0.15 kcal/mol
6,GGAGCCACGTGGGCGT,-0.23 kcal/mol
7,TCGAGCACGTGGTCGG,-0.15 kcal/mol
8,TTTCTCACGTGAAGAG,0.44 kcal/mol
9,TTTTACACGTGTGCAG,0.13 kcal/mol
10,TCTGCCACGTGTGTGG,-0.03 kcal/mol
11,TGGGACACGTGGGTCT,-0.1 kcal/mol
12,GTTAGCACGTGGTTCT,-0.1 kcal/mol
13,AAACTCACGTGTGGGG,0.28 kcal/mol
14,TTGGGCACGTGTAATT,0.08 kcal/mol
15,CATGTCACGTGTTGGT,0.12 kcal/mol
16,ATGGGCACGTGTGTGT,-0.03 kcal/mol
17,AAGGTCACGTGATACT,0.28 kcal/mol
18,CGTGTCACGTGAATAT,0.36 kcal/mol
19,TGCATCACGTGGGGAA,0.03 kcal/mol
20,ACTGTCACGTGTGTGA,0.07 kcal/mol
21,AGTGTCACGTGGGCAG,-0.14 kcal/mol
22,TGTGGCACGTGGCTTG,-0.05 kcal/mol
23,GGGAACACGTGGAGGA,-0.08 kcal/mol

row,Sequence,relative binding free energy
1,GGCGACACGTGTGTTG,0.11 kcal/mol
2,TGGCTCACGTGTGTGA,0.2 kcal/mol
3,TTGTGCACGTGTCGCG,0.03 kcal/mol
4,CGTTTCACGTGCGGGT,0.23 kcal/mol
5,GCTGTCACGTGTGCTG,0.14 kcal/mol
6,TCGTGCACGTGTAAGG,0.02 kcal/mol
7,ATATGCACGTGTCATG,-0.06 kcal/mol
8,GGTCGCACGTGTGGAG,0.14 kcal/mol
9,GGTTACACGTGGTAAT,0.21 kcal/mol
10,TGTAACACGTGTTCAT,0.01 kcal/mol
11,TTATTCACGTGATGAT,0.17 kcal/mol
12,GCATGCACGTGGTTTG,-0.08 kcal/mol
13,GTCTTCACGTGGGGCT,0.17 kcal/mol
14,TATTGCACGTGGTAAC,0.05 kcal/mol
15,TAGTTCACGTGTCTAT,0.1 kcal/mol
16,GGTGACACGTGTTTTG,0.01 kcal/mol
17,AATGGCACGTGGATTC,0.05 kcal/mol
18,GGTTGCACGTGTATTG,0.19 kcal/mol
19,CGTGGCACGTGTTCGG,-0.11 kcal/mol
20,GGCATCACGTGGTGTG,0.07 kcal/mol
21,AGCGACACGTGAGTTT,0.28 kcal/mol
22,GGTTGCACGTGAGAGT,0.31 kcal/mol
23,TTTCACACGTGAGAAT,0.43 kcal/mol
